Measured values: the supplement of paper PMC4967469
A lower IC50 marks a more sensitive line; where the fit passes the top or lowest dose, that dose stands as a limit. AUC is the area under the same curve over the 256-fold range up to the top dose, as a fraction; values near 1 show little effect. For some assays here: The top dose, if marked as inferred, is not printed in the source and was worked back from the curve model. For some assays here: Where an entry number is given, a second screen of the drug exists; the two often differ.

Columns and labels:
Assay in all cases: Viability of human cancer cell lines after 72 h of drug (GDSC screen)
[1] = compound: Cc1ccc(Nc2cc(-c3cccc(N4C(=O)c5ccccc5C4=O)c3)ncn2)cc1NS(C)(=O)=O [KIN001-270]; details: top dose 20 µM; top dose inferred
Description: (§1)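 Human cancer cell lines in 384-well plates, medium with 10% serum, drug for 72 h over a 256-fold dose range (nine 2-fold or five 4-fold steps up to the top dose). Adherent lines were fixed and stained with the nucleic acid dye Syto60, suspension lines read with resazurin; signal relative to control wells, capped at 0 and 100%. One two-parameter sigmoid per drug and line, fitted in a mixed model over all curves with the slope shared within a line.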

[2] = compound: CC(C)c1ccccc1Cc1cc(C(=O)Nc2ccc(S(=O)(=O)c3ccccc3C(C)(C)C)cc2)c(O)c(O)c1O [TW-37]; details: top dose 5 µM
Description: as §1

[3] = compound: NC(=O)c1cccc(-c2cc(Nc3ccc(OC(F)(F)F)cc3)ncn2)c1 [GNF-2]; details: top dose 1.28 µM; top dose inferred
Description: as §1

[4] = compound: Nc1ccn([C@@H]2O[C@H](CO)[C@@H](O)C2(F)F)c(=O)n1 [Gemcitabine]; details: top dose 1.024 µM
Description: as §1

[5] = compound: Cc1cn(-c2cc(NC(=O)c3ccc(C)c(Nc4nccc(-c5cccnc5)n4)c3)cc(C(F)(F)F)c2)cn1 [Nilotinib]; details: top dose 2 µM
Description: as §1

[6] = compound: S=C(NCc1ccc2c(c1)OCO2)N1CCN(c2ncnc3c2oc2ccccc23)CC1 [MP470]; details: top dose 20 µM; top dose inferred
Description: as §1

[7] = compound: O=S(=O)(c1ccccc1)N(CC(F)(F)F)c1ccc(C(O)(C(F)(F)F)C(F)(F)F)cc1 [T0901317]; details: top dose 10.24 µM; top dose inferred
Description: as §1

[8] = compound: CC(O)(CS(=O)(=O)c1ccc(F)cc1)C(=O)Nc1ccc(C#N)c(C(F)(F)F)c1 [Bicalutamide]; details: top dose inferred
Description: as §1

[9] = compound: CCNC(=O)c1noc(-c2cc(C(C)C)c(O)cc2O)c1-c1ccc(CN2CCOCC2)cc1 [AUY922]; details: top dose 0.256 µM; top dose inferred
Description: as §1

[10] = compound: C/C(O)=C(\C#N)C(=O)Nc1cc(Br)ccc1Br [LFM-A13]; details: top dose 16 µM; top dose inferred
Description: as §1

[11] = top dose 1.024 µM, screen: GDSC drug entry 150
[12] = top dose 10 µM, screen: GDSC drug entry 1502

Cell Line | AUC [1] | IC50 [1] [µM] | AUC [2] | IC50 [2] [µM] | AUC [3] | IC50 [3] [µM] | AUC [4] | IC50 [4] [µM] | AUC [5] | IC50 [5] [µM] | AUC [6] | IC50 [6] [µM] | AUC [7] | IC50 [7] [µM] | AUC [8, 11] | IC50 [8, 11] [µM] | AUC [8, 12] | IC50 [8, 12] [µM] | AUC [9] | IC50 [9] [µM] | AUC [10] | IC50 [10] [µM]
KARPAS-422 (B-cell lymphoma, suspension) | 0.984 | > 20 | 0.747 | 1.57 | 0.984 | > 1.28 | 0.525 | 0.075 | 0.986 | > 2 | 0.948 | > 20 | 0.986 | > 10.2 | 0.988 | > 1.02 | 0.984 | > 10 | 0.687 | 0.0528 | 0.983 | > 16
KARPAS-620 (haematopoietic neoplasm, suspension) | 0.939 | > 20 | 0.525 | 0.362 | 0.991 | > 1.28 | 0.735 | 0.265 | 0.987 | > 2 | 0.845 | 11.5 | 0.944 | > 10.2 | 0.986 | > 1.02 | 0.988 | > 10 | 0.47 | 0.0134 | 0.974 | > 16
KE-37 (lymphoblastic leukaemia, suspension) | 0.98 | > 20 | 0.504 | 0.32 | 0.994 | > 1.28 | 0.089 | 0.00491 | 0.991 | > 2 | 0.935 | > 20 | 0.931 | > 10.2 | 0.994 | > 1.02 | 0.991 | > 10 | 0.403 | 0.00924 | 0.966 | > 16
KGN (ovary, adherent) | 0.92 | > 20 | 0.552 | 0.448 | 0.979 | > 1.28 | 0.04 | < 0.004 | 0.981 | > 2 | 0.836 | 17.5 | 0.981 | > 10.2 | 0.978 | > 1.02 | 0.964 | > 10 | 0.393 | 0.00762 | 0.944 | > 16
KINGS-1 (glioma, adherent) | 0.956 | > 20 | 0.774 |  | 0.96 | > 1.28 | 0.965 | > 1.02 | 0.976 | > 2 | 0.965 | > 20 | 0.962 | > 10.2 | 0.976 | > 1.02 | 0.966 | > 10 | 0.59 | 0.0309 | 0.954 | > 16
KLE (endometrium, adherent) | 0.953 | > 20 | 0.609 | 0.738 | 0.962 | > 1.28 | 0.628 | 0.176 | 0.978 | > 2 | 0.918 | > 20 | 0.961 | > 10.2 | 0.978 | > 1.02 | 0.948 | > 10 | 0.794 | 0.203 | 0.962 | > 16
KM12 (large intestine, adherent) | 0.971 | > 20 | 0.731 | 1.51 | 0.985 | > 1.28 | 0.551 | 0.0893 | 0.985 | > 2 | 0.931 | > 20 | 0.974 | > 10.2 | 0.978 | > 1.02 | 0.984 | > 10 | 0.562 | 0.024 | 0.972 | > 16
KM-H2 (Hodgkin lymphoma, suspension) | 0.987 | > 20 | 0.842 | 2.76 | 0.992 | > 1.28 | 0.393 | 0.0341 | 0.992 | > 2 | 0.955 | > 20 | 0.976 | > 10.2 | 0.993 | > 1.02 | 0.985 | > 10 | 0.734 | 0.0654 | 0.991 | > 16
KMOE-2 (acute myeloid leukaemia, suspension) | 0.94 | > 20 | 0.481 | 0.279 | 0.99 | > 1.28 | 0.646 |  | 0.888 | 1.83 | 0.915 | > 20 | 0.921 | > 10.2 | 0.989 | > 1.02 | 0.971 | > 10 | 0.648 | 0.0392 | 0.963 | > 16
KMS-12-BM (myeloma, suspension) | 0.984 | > 20 | 0.484 | 0.285 | 0.991 | > 1.28 | 0.807 | 0.418 | 0.963 | > 2 | 0.839 | 10.4 | 0.921 | > 10.2 | 0.991 | > 1.02 |  |  | 0.686 | 0.0478 | 0.989 | > 16
KNS-42 (glioma, adherent) | 0.968 | > 20 | 0.785 | 2.59 | 0.982 | > 1.28 | 0.793 | 0.57 | 0.982 | > 2 | 0.976 | > 20 | 0.984 | > 10.2 | 0.984 | > 1.02 | 0.971 | > 10 | 0.872 | > 0.256 | 0.943 | > 16
KNS-81-FD (glioma, adherent) | 0.955 | > 20 | 0.544 | 0.428 | 0.98 | > 1.28 | 0.844 | > 1.02 | 0.977 | > 2 | 0.926 | > 20 | 0.976 | > 10.2 | 0.978 | > 1.02 | 0.967 | > 10 | 0.721 | 0.0861 | 0.969 | > 16
